The campaign covered roughly 16,000 compounds. About 120 (0.75%) were called active. Not shown: some 4% with an inconclusive outcome. Calls come from the whole dose curve; as a rule, active = well fitted inhibition curve with a large enough effect; inconclusive = small, poorly fitted or top-dose-only effect; inactive = no such curve, though single readings can be large or run the other way. This is one part of the list.
target: Rap guanine nucleotide exchange factor 3 (Homo sapiens) (UniProt O95398); assay: Validation qHTS for antagonist of cAMP-regulated guanine nucleotide exchange factor 3 (EPAC1); conditions: EPAC1 Rap1B-BODIPY-GDP exchange, fluorescence; series mostly up to 150 µM; activity change, negative = inhibition: at the top concentration;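 note: plate controls were DMSO for no effect and ATA control for full effect; nearly all actives have a fitted effect of over 75% in size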
Sequence of UniProt O95398 (O95398 whole entry, looked up): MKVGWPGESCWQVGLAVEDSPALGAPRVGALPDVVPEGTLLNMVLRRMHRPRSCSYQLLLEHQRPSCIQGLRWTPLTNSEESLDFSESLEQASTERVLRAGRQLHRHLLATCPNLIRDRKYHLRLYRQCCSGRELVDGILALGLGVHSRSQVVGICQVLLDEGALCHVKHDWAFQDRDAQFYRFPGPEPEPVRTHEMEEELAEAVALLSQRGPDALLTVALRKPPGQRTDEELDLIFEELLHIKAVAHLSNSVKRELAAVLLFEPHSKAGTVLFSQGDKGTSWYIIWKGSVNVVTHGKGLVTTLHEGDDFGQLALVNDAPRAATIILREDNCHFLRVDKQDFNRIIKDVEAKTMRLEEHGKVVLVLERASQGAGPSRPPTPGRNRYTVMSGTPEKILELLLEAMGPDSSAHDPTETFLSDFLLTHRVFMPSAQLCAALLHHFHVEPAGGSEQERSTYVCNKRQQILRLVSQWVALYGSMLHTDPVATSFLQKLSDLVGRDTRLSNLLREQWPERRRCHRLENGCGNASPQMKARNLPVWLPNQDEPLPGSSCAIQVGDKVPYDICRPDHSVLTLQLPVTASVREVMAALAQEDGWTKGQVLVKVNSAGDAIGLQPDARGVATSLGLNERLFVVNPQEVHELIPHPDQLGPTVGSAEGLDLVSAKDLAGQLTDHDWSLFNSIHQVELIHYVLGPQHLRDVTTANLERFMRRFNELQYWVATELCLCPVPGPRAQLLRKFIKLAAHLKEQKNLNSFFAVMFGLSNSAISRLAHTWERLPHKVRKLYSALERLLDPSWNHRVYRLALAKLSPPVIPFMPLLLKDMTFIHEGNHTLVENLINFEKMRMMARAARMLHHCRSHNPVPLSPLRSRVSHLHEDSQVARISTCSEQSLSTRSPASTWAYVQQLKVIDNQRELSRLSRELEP
Method in brief: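 Nucleotide exchange followed as fluorescence loss when BODIPY-GDP leaves Rap1B (480 nm excitation, 540 nm emission), read at 5 min intervals over 30 min. Reaction: 100 nM EPAC1, 250 nM RAP1B-BODIPY-GDP, 50 uM GDP; ATA and DMSO define normalization.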

Activity change, negative = inhibition, inactive:
CS(=O)(=O)Nc1ccc([N+](=O)[O-])cc1OC1CCCCC1
NC(N)=NCC1COc2ccccc2O1 (configuration not stated) 2.96%
COc1ccc2[nH]cc(CCNc3cc(-c4ccc(C(=O)N(C)C)cc4)ncn3)c2c1 -13%
Nc1c(Br)cc(Br)cc1CNC1CCC(O)CC1 (configuration not stated)
COC(=O)C(N)CS (configuration not stated) 12.3%
CC(=O)OC1CCC2(O)CC1(C)CCC1C2CC1(C)C (configuration not stated) 14.1%
Cc1c(C(=O)NCCO)[n+](=O)c2ccccc2n1[O-] 7.03%
COc1ccc(-c2oc3ccccc3c(=O)c2O)cc1 3.28%
C[C@H]1C[C@@H]2[C@H]([C@@H](O)C[C@@]3(C)[C@H]2CC[C@]3(O)C(=O)COC(=O)CCC(=O)O)[C@@]2(C)C=CC(=O)C=C12 20.1%
OCCOCCOCCO 24.2%
Cc1onc(-c2ccccc2)c1C(=O)NCCN1Cc2ccccc2OC(c2ccsc2)C1 (configuration not stated) 14.3%
Nc1cc(-c2ccncc2)c[nH]c1=O
CCOC(=O)c1c(C)n(C)c2ccc(O)cc12 6.13%
O=C(Nc1cccc(F)c1)N1CCCC2(CCNCC2)C1 5.58%
CCC(=O)OCC(=O)[C@@]1(OC(=O)CC)[C@H](C)C[C@H]2[C@H]3[C@H]([C@@H](O)C[C@@]21C)[C@@]1(C)C=CC(=O)C=C1C[C@H]3Cl 14.3% [at 75.8 µM]
CC(C)CN1CCC2(CC1)CCN(C(=O)c1cccn1C)CC2 16.1%
c1ccc2nc(C3=NCCN3)cnc2c1 -11%
O=C(Cc1c[nH]c2ccccc12)N1CCC(n2c(C3CCCO3)nc3cc(C(F)(F)F)ccc32)CC1 (configuration not stated) -11.3%
CCOC(=O)C[C@H]1c2cc(C(F)(F)F)ccc2S(=O)(=O)N1Cc1ccccc1 -15.9%
CN1CCN(CCC(=O)N2c3ccccc3Sc3ccc(C(F)(F)F)cc32)CC1 16.5%
O=C(O)c1cc(=O)c2ccc(Cl)cc2[nH]1
O=C(Nc1ccccc1)[C@@H]1CC=C[C@@H]2CCN(C3CCCCC3)C(=O)[C@@H]21 17.4%
O=C(CC(=O)c1ccccc1)c1ccccc1 -16.5%
COc1ccc(-n2c(=O)c(C)nc3cncnc32)cc1 8.58%
Cc1ncc2c(c1CNC(=O)c1ccc3c(c1)OCO3)CCN(C(=O)c1ccc3ccccc3c1)C2 -5.93%
O=C1N[C@@H](Cc2c[nH]c3ccccc23)C(=O)N[C@H]1Cc1c[nH]c2ccccc12 -11.2%
C[C@@H]1O[C@@H](OC[C@H]2O[C@@H](Oc3c(-c4cccc(O)c4O)oc4cc(O)cc(O)c4c3=O)[C@H](O)[C@@H](O)[C@@H]2O)[C@H](O)[C@H](O)[C@H]1O 9.86%
CN(C)CC[C@@H](c1ccc(Cl)cc1)c1ccccn1
CC(=O)OCC(=O)[C@@]1(O)CCC2C3CCC4=CC(=O)CC[C@]4(C)C3[C@@H](O)C[C@@]21C (some centres not stated) 27.2%
COC(=O)C1CCN(Cc2ccc3c(c2)CN(C(=O)c2ccnn2C)CCO3)CC1 5.49%
COc1ccc(C(C)=O)cc1 18.3%
N#Cc1ccc(CN2CCC3(CC2)CCN(C(=O)c2ccco2)CC3)cc1 21.2%
Cc1ccc2c(Cl)cc(Cl)c(O)c2n1
COc1ccccc1CNc1cc(-c2ccoc2)ncn1 6.79%
COc1ccc2[nH]cc(CCNc3nc(-c4ccc(N(C)C)cc4)nc4ccccc34)c2c1 -19.2%
CC(C)C[C@@H](CO)N1CCN(Cc2ccc(Br)cc2)CCC1=O 13.7%
C=C1CCC(OC(C)=O)/C(C)=C/CC2[C@H]1CC2(C)C (some centres not stated) 4.9%
CN(C)CC/C=C1/c2ccccc2CSc2ccccc21 -7.96% [at 75.8 µM]
N[C@H](C(=O)O)[C@H](OCc1ccccc1)C(=O)O 4.05%
COc1ccc2c(c1)CCc1cnc(-n3ncc(C(=O)NCC(C)(C)CN(C)C)c3C)nc1-2 -15.2%
COc1ccc(SCCN2CC[C@@H](NC(=O)OCc3ccccc3)CCC2=O)cc1 3.6%
CN(C)C(=O)c1ccc(-c2nccc(-n3ccnc3)n2)cc1 18.7%
OC(CCN1CCCCC1)(c1ccccc1)C1CCCCC1 (configuration not stated)
CCNc1ncc2nc(-c3cc(F)cc(F)c3)c(=O)n(Cc3cccs3)c2n1 27.4%
COCc1c(C(=O)N2CCN(C)CC2)cnn1-c1ncc2c(n1)-c1ccccc1CCC2 10.1%
Cc1ncc2c(c1CNC(=O)c1cncs1)CCN(C(=O)c1cc(F)c(F)cc1F)C2 5.25%
COc1ccc(-n2c(=O)c(CCc3ccccc3)nc3cncnc32)cc1 -5.37%
CC(=O)Nc1cc(C(=O)N2CC3(C)CC2CC(C)(C)C3)cc2ncn(CCc3ccccn3)c12 (configuration not stated) 13.5%
COc1ccc(C[C@H](C)NC[C@@H](O)c2ccc(O)c(NC=O)c2)cc1 -8.27%
COc1ccc(CCNc2ncnc3sc(C(=O)N(C)C)c(C)c23)cc1OC 18.5%
O=C(OCc1ccccc1)c1ccccc1
CS(=O)(=O)N1CCC2(CCN(C(=O)Nc3cccc(F)c3)CC2)CC1 12.8%
N#Cc1cccc(NC(=O)N2CC[C@@]3(CCCN(C(=O)c4ccco4)C3)C2)c1 14.8%
Cc1csc(-c2coc3cc(O[C@@H]4O[C@H](CO)[C@@H](O)[C@@H](O)[C@H]4O)ccc3c2=O)n1 5.97%
CN(C)c1ccc(-c2ccc3ncnc(N(C)C)c3c2)cc1 -4.39%
CN(C)CCOC(=O)COc1ccc(Cl)cc1
CCOC(=O)c1cccnc1 9.46%
Brc1c(NC2=NCCN2)ccc2nccnc12
O=S(=O)(c1ccccc1)N1CCC[C@@]2(CCN(Cc3nccs3)C2)C1 13.2%
O=S1(=O)CCOCCCN1Cc1ccccc1F 5.74%
O=C1CC(c2ccc(O)cc2)Oc2ccccc21 (configuration not stated) 11.1%
O=C(C[n+]1cccc2cccc(O)c21)c1ccc(Cl)cc1 20.4%
COc1cc(CNCc2cc3ccc(F)cc3nc2N2CCOCC2)cc(OC)c1OC 20%
O=C(NC1CCC(n2cc(C(=O)NC3CC3)nn2)CC1)C(=O)c1ccccc1 (configuration not stated) 12.1%
C#Cc1cccc(Nc2ncnc3cc(OC)c(OC)cc23)c1 11%
C[C@H](N=C(NC#N)Nc1ccncc1)C(C)(C)C -10.6%
CN1C[C@H](C(=O)N[C@@]2(C)O[C@@]3(O)C4CCCN4C(=O)C(Cc4ccccc4)N3C2=O)C[C@H]2c3cccc4[nH]cc(c34)C[C@H]21 (some centres not stated) 11.3%
CCC(C)[C@H]1COCCS(=O)(=O)N1Cc1ccccc1F (some centres not stated) 0.167%
O=C(c1cccc(F)c1)N1CCC[C@@]2(CCN(C(c3ccccc3)c3ccccc3)C2)C1 -3.86%
O=C(C[N+]12CCCc3cccc(c31)CCC2)c1ccc(Cl)c2ccccc12 -20.4%
Cc1c(C)n(CCN(C)C)c2ccc(C(=O)OCCN(C)C)cc12 0.933%
Cc1c[nH]c(=O)n(CCCN2CCN(c3ccccc3OCC(F)(F)F)CC2)c1=O -2.34%
CCCCC/C=C\C/C=C\C/C=C\C/C=C\CCCC(=O)O[C@H](COCCCCCCCCCCCCCCCC)COP(=O)([O-])OCC[N+](C)(C)C 11.9% [at 15.3 µM]
COc1ccc2c(c1)OC(C)CN(CCNC(=O)c1csc(-c3cccs3)n1)C2 (configuration not stated) 20.2%
COCC(=O)N1CCC2(CC1)CN(Cc1nccs1)C2 37.8%
C[C@]12CC[C@@H]3c4ccc(O)cc4C[C@@H](CCCCCCCCCS(=O)CCCC(F)(F)C(F)(F)F)[C@H]3[C@@H]1CC[C@@H]2O (some centres not stated)
COc1ccc2cc1Oc1ccc(cc1)C[C@H]1c3cc(c(OC)cc3CCN1C)Oc1c(OC)c(OC)cc3c1[C@H](C2)N(C)CC3
CCCCCCCCCCCCSCCOCCO 19.4%
C[C@@H](NC(=O)/C(C#N)=C/c1ccc(O)c(O)c1)c1ccccc1 35.9% [at 75.8 µM]
COc1ccc(-c2nc3cnc(N4CCNCC4)nc3n(-c3ccccc3)c2=O)cc1 12.1%
O=C(c1csnn1)N1CCC2(CC1)CCN(c1ccccc1)CC2 24.3%
COc1cccc(Cn2c(=O)c(-c3ccccc3)nc3cnc(N(C)C)nc32)c1 3.51%
Cc1cccc(CNC(=O)c2cnn(-c3ncc4c(n3)-c3ccccc3CC4)c2C2CC2)n1 -0.034%
CC(=O)OCC(=O)[C@@]1(O)[C@H](C)C[C@H]2[C@@H]3C[C@H](F)C4=CC(=O)C=C[C@]4(C)[C@H]3[C@@H](O)C[C@@]21C 22.1%
O=C(C[N+]1(CCc2ccccc2)CCOCC1)c1ccccc1 27.8%
CNCC[C@H](Oc1ccccc1OC)c1ccccc1 2.96%
Fc1ccc(C(c2ccc(F)cc2)N2CCN(C/C=C\c3ccccc3)CC2)cc1 -19.4%
NC(=O)Oc1ccc(Cc2ccccc2)cc1 6.34%
O=C(c1cccc(F)c1)N1CCC[C@@]2(CCN(Cc3ccccc3)C2)C1 14.8%
CC(C)CN1CCCC2(CCN(C(=O)c3ccco3)CC2)C1 13.1%
Nc1nc2c(c(=O)[nH]1)N(C=O)C(CNc1ccc(C(=O)NC(CCC(=O)O)C(=O)O)cc1)CN2 (configuration not stated) 12.1%
COc1cc(=O)n2c(c1C(=O)N(C)Cc1nccs1)CCN(Cc1ccc(F)c(F)c1)CC2 7.83%
Cc1ccc(C(=O)Nc2cccc(-c3nc(CNC(=O)c4ccc5ccccc5n4)c(C)o3)c2)s1 1.13%
CCn1nc(C)c(CN2Cc3ccccc3OC(c3ccccc3OC)C2)c1C (configuration not stated) 6.12%
O=C(O)c1ccccc1-c1ccc(C(F)(F)F)cc1 -17.3%
Nc1ncnc2c1ncn2CCOCP(=O)(O)O 16.2%
CC(C)C1=CC2=CC[C@@H]3[C@@](C)(C(=O)O)CCC[C@]3(C)C2CC1 (some centres not stated) -15.6%
COC(=O)[C@H](CC(C)C)NS(=O)(=O)NC(=O)OC(C)(C)C 10.9%
CCNc1ncc2nc(C)c(=O)n(C[C@H]3CCCO3)c2n1 -2.85%
CCC1(C2CCN(C(=O)c3coc4c3C(=O)CCC4)CC2)NC(=O)N(CCc2scnc2C)C1=O (configuration not stated) 11.2%
COc1ccc(CN2CC[C@H]3C=CC[C@@H](C(=O)NCCc4ccccc4)[C@H]3C2=O)cc1OC 3.44%
O=C1CCc2cc(OCCCCc3nnnn3C3CCCCC3)ccc2N1
